Measurements reported in PubChem BioAssay AID1347073 (National Center for Advancing Translational Sciences (NCATS), 2019).
In all, about 45,000 compounds went through this assay and about 200 (0.44%) were called active. Not shown: some 7% with an inconclusive outcome. Calls come from the whole dose curve; as a rule, active = well fitted activation curve with a large enough effect; inconclusive = small, poorly fitted or top-dose-only effect; inactive = no such curve, though single readings can be large or run the other way. The list shows a part of the results.

Test: qHTS of TDP-43 Inhibitors: NCGC Sytravon Library Screen; note: 0% is about no effect; nearly all actives have a fitted effect of over 55% in size
Details: yeast TDP-43 toxicity rescue, BacTiter-Glo growth, 24 h; series mostly up to 46.1 µM; growth rescue (activation): at the top concentration
In short: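 TDP-43-expressing yeast, pregrown in raffinose, seeded at OD600 0.02 in galactose medium with compound for 24 hr at 30 deg C. Growth read by BacTiter-Glo luminescence, so rescue of toxicity appears as activation.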
With COc1ccccc1NC(=O)Cn1cnc2c1c(=O)n(C)c(=O)n2C the “growth rescue (activation)” value was inactive: 2.05%. For O=C(NCCc1ccncc1)Nc1ccc(F)cc1, the “growth rescue (activation)” value was inactive: 6.29%. In the case of CC(C)n1nccc1N(Cc1ccc(C#N)cc1)S(=O)(=O)c1ccccc1, the “growth rescue (activation)” value is reported as inactive: 8.82%. With O=C(CN1CCCCCC1)Nc1ccccc1 the “growth rescue (activation)” value was inactive: 0.364%. For O=C(O)C1CCCN1C1=NS(=O)(=O)c2ccccc21 (stereo unspecified), the “growth rescue (activation)” value was inactive: -0.423%. In the case of CN(C)c1cc(Cl)c2nonc2c1N, the “growth rescue (activation)” value is reported as inactive: 9.56%. For O=C(CNC(=O)c1ccccc1Cl)NC1CCN(Cc2ccccc2)CC1, the “growth rescue (activation)” value was inactive: 4.21%. For Cc1cccn2c(=O)c3cc(C(=O)NCCc4ccccc4)c(=N)n(CC4CCCO4)c3nc12 (stereo unspecified), the “growth rescue (activation)” value was inactive: 8.26%. With CCCc1cc(=O)[nH]c(SCC(=O)Nc2ccccc2C#N)n1 the “growth rescue (activation)” value was inactive: 15.4%. With Cc1ccc(N(Cc2cc(=O)[nH]c3ccccc23)C(=O)CCl)c(C)c1 the “growth rescue (activation)” value was inactive: 9.33%. For O=C(c1cc2c(s1)CCCC2)N1CCN(CCO)CC1, the “growth rescue (activation)” value was inactive: -6.35%. With O=C(NNC(=O)C1CCCO1)c1ccc([N+](=O)[O-])cc1 (stereo unspecified) the “growth rescue (activation)” value was inactive: 1.95%. With O=C(COC(=O)/C=C/c1cccc(Br)c1)NCCC1=CCCCC1 the “growth rescue (activation)” value was inactive: 19.7%. With N#CC(C#N)=C1C=CC=CN1/C(=C\c1ccco1)C(=O)c1ccc(Br)cc1 the “growth rescue (activation)” value was inactive: 12.6%. For O=C(Nc1ccc(N2CCOCC2)cc1)C1=NN(c2ccccc2)C(=O)CC1, the “growth rescue (activation)” value was inactive: 24.1%. With CCOC(=O)c1cc2cc([N+](=O)[O-])ccc2oc1=O the “growth rescue (activation)” value was inactive: 16.7%. For CCN(CC)S(=O)(=O)c1ccc(OCC(=O)NC2CCS(=O)(=O)C2)c([N+](=O)[O-])c1 (stereo unspecified), the “growth rescue (activation)” value was inactive: -8.41%. For CCOC(=O)Cc1csc(NC(=O)Cc2ccc(Br)cc2)n1, the “growth rescue (activation)” value was inactive: 33.8%. In the case of COc1ccccc1Nc1ccc([N+](=O)[O-])cn1, the “growth rescue (activation)” value is reported as inactive: 5.99%. In the case of CC(=O)Nc1ccc(C(=O)CN2C(=O)NC3(CCCc4ccccc43)C2=O)c(F)c1 (stereo unspecified), the “growth rescue (activation)” value is reported as inactive: 17.9%. With O=C(CCN1CCCCO1)N1CCCC(Nc2ccc(F)cc2)C1 (stereo unspecified) the “growth rescue (activation)” value was inactive: 6.23%. For COc1ccc2c(c1)Cc1sc(NC(=O)c3cccc(F)c3)nc1-2, the “growth rescue (activation)” value was inactive: 15.5%. With CCOC(=O)c1ccc(NC(=O)C2CC(=O)N(c3ccc(C(C)C)cc3)C2)cc1 (stereo unspecified) the “growth rescue (activation)” value was inactive: 9.95%. In the case of CC(=O)ONC(=Nc1ccccc1)c1nonc1N, the “growth rescue (activation)” value is reported as inactive: -1.25%. With Cc1ccc(S(=O)(=O)NCCCOC(=O)Nc2ccncc2)cc1 the “growth rescue (activation)” value was inactive: 0.817%. For Cc1cccc(-n2c(N)c(C(=O)NCCN3CCOCC3)c3nc4ccccc4nc32)c1, the “growth rescue (activation)” value was inactive: 8.47%. With COc1ccccc1CNC(=O)c1ccc(-c2ccccc2)cc1 the “growth rescue (activation)” value was inactive: 1.19%. For Cc1cccc(NC(=O)CCNS(=O)(=O)c2cccc3nonc23)c1, the “growth rescue (activation)” value was inactive: -11.1%. For O=C(C[n+]1cc(Br)cc(Br)c1)c1ccccc1, the “growth rescue (activation)” value was inactive: 2.94%. In the case of COc1ccc(OC(C)c2ccc(C#N)c(=O)[nH]2)cc1 (stereo unspecified), the “growth rescue (activation)” value is reported as inactive: 6.47%. For CN(C)C(=O)c1cccc(-c2cccc3nccn23)c1, the “growth rescue (activation)” value was inactive: -9.65%.
